Values marked as one replicate rest on one cluster of the flow cell; about a third of the high ones do not repeat.
The sequences below were run on ATP (assay: switch fluorescence ratio, 500 uM ATP over buffer (Cy3 cluster intensity, sum of 5 cycles each) (fold (ratio)); higher = stronger signal-on switching upon ATP binding; sequences stand for … in TCGTCGGCAGCGTCAGATGTGTATAAGAGACAGTTTTTTTTTTTTTTTTTTTTTTTTT…TC). Details: aptamer strand: ATP DNA aptamer (quencher-CACCTGGGGGAGTATTGCGGAGGAAGG + anchor), 100 nM annealed; ATP concentration: 500 uM; one replicate.
In short: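 Per cluster, summed Cy3 intensity from the target cycles was divided by that from the buffer cycles to give the fluorescence ratio, then averaged per switch-domain sequence. Clusters outside 100-1000 RFU were excluded. The Cy3-labelled switching-strand clusters, on a modified Illumina MiSeq flow-cell, were annealed to 100 nM quencher-labelled ATP aptamer and imaged in selection buffer, then after 15 min with 500 uM ATP at 22 °C, for five cycles with NaOH stripping and re-annealing between them.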
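Also: ATP exposure 15 min at 22 °C before imaging.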

Sequence | switch fluorescence ratio
ACGCGCGAGT | 1.06
ACGCGGAGAA | 1.02
ACGCGGGTGA | 1.05
ACGCGTACGA | 0.959
ACGCGTATTT | 1.01
ACGCTAATTT | 1.21
ACGCTAGAAT | 1.07
ACGCTCCATT | 1.09
ACGCTCCCCA | 1.95
ACGCTGGACG | 1.06
ACGCTGTGCT | 1.04
ACGCTGTTGC | 1.06
ACGCTTCTGC | 1.05
ACGCTTTGTT | 1.06
ACGGAAAGGG | 1.09
ACGGAAAGTC | 1.02
ACGGAATAGC | 3.05
ACGGAC | 1.39
ACGGAGAATA | 1.24
ACGGAGCCGG | 1.1
ACGGAGTTG | 1.01
ACGGCAGGTG | 6.27
ACGGCAGTTC | 1.07
ACGGCTAGG | 1.02
ACGGCTGTCT | 1.11

Sequence | switch fluorescence ratio
ACGGCTTTTA | 0.955
ACGGGAATAG | 1.38
ACGGGGAAT | 1.01
ACGGGGCTAG | 1.02
ACGGGGGCAT | 1.05
ACGGGGTTCA | 0.972
ACGGGTAGGT | 1.01
ACGGGTTAG | 1
ACGGGTTCAC | 1.01
ACGGTAATTA | 1.12
ACGGTACGTA | 1.03
ACGGTATGCG | 1.07
ACGGTGATCT | 1.02
ACGGTGCGGA | 0.98
ACGGTGGATG | 1.04
ACGGTGGGGC | 1.03
ACGGTGTACA | 1.01
ACGGTGTCGC | 0.989
ACGGTTAGAA | 1.06
ACGGTTATC | 1.08
ACGGTTATCA | 1.02
ACGGTTTCGC | 1.02
ACGTAAAGCC | 1.08
ACGTAATAGG | 1.24
ACGTACAATT | 1.33

Sequence | switch fluorescence ratio
ACGTACGAAC | 1.32
ACGTACGGAG | 1.38
ACGTACTCAA | 1.31
ACGTAGAATT | 1.12
ACGTAGAGGG | 1.05
ACGTAGGCGA | 1.08
ACGTATAGTA | 0.995
ACGTATCACA | 1.18
ACGTATGAGG | 1
ACGTATGGGT | 1.04
ACGTATTCCT | 1.16
ACGTATTGAT | 1.17
ACGTCAATGG | 1.94
ACGTCATCCG | 1.21
ACGTCCGGTT | 0.993
ACGTCGAGTA | 1.03
ACGTCTAAGG | 1
ACGTCTCGAA | 1
ACGTGCATTG | 0.977
ACGTGCGACT | 1.02
ACGTGGCTC | 1.08
ACGTGTCATC | 1.02
ACGTGTTCGA | 1.03
ACGTTATATT | 1.6
ACGTTATCCT | 1.18

Sequence | switch fluorescence ratio
ACGTTATGGA | 1.15
ACGTTATTAG | 1.08
ACGTTCAACC | 1.15
ACGTTCCCGC | 2.27
ACGTTCGAT | 1.04
ACGTTGCGCT | 0.997
ACGTTTCTGC | 0.994
ACGTTTGGAG | 1.01
ACGTTTTAAA | 1.02
ACTAAAACGG | 1.1
ACTAACATCA | 1.13
ACTAATAACG | 1.06
ACTAATCCAA | 1.06
ACTACATAAC | 1.15
ACTACGGCAG | 1.08
ACTACGTTAT | 1.23
ACTACTGCGA | 1.44
ACTAGCACCC | 1.11
ACTAGCACTC | 1.13
ACTAGCTTG | 0.956
ACTAGCTTTA | 1.09
ACTAGGTGCT | 0.951
ACTAGTTG | 0.941
ACTATATGA | 1.05
ACTATCACAT | 1.21

— the supplement of paper PMC10126150
